# Laboratory results from paper PMC6919601, “Identification of Plasmodium dipeptidyl aminopeptidase allosteric inhibitors by high throughput screening” (PLoS ONE, 2019).
# About 230 (0.21%) of roughly 110,000 compounds showed an effect of 50% or more. The list shows a part of the results.
# Target: DPAP1 (Plasmodium falciparum, UniProt Q8IIJ9)
# Test: primary screen, percent inhibition; read by cleavage of a fluorogenic dipeptide substrate; higher = more effect of the substance
# Set-up: species or system P. falciparum D10 trophozoite lysates; single well
# 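Also: 30 min substrate incubation versus DMSO and 10 µM JCP410 controls.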
# DPAP1, sequence (Q8IIJ9 whole entry, looked up): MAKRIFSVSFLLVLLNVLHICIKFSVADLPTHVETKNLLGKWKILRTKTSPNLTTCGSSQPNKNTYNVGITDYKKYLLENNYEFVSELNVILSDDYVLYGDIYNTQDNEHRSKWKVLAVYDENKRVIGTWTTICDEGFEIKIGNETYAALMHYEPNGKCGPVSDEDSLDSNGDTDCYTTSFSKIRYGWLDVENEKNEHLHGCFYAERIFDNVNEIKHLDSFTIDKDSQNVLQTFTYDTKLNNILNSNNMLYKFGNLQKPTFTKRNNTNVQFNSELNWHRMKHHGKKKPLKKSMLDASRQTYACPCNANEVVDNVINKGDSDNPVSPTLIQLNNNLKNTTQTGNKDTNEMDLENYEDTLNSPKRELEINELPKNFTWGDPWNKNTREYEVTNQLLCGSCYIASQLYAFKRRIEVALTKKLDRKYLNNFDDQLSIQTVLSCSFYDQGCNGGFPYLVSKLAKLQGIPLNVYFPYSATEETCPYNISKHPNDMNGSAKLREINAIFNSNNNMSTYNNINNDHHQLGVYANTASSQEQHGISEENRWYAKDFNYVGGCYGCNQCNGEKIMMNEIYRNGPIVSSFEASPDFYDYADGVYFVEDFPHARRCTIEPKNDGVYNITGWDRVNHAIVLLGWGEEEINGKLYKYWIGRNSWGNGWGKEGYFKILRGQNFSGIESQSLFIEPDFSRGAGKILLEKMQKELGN
row,SMILES,% Inhibition @ 10 uM [%]
1,Cc1ccc(NS(=O)(=O)c2ccc([N+](=O)[O-])cc2)c(C)c1,17.9
2,COc1cccc2c1cc1c(=O)n(CC(=O)NCC3CCCO3)nc(C)n12 (centres unmarked),-1.7
3,CCC(=O)N1C(C(=O)NCCC(C)C)CSC12CCN(C)CC2 (centres unmarked),-4
4,CCCCCCNC(=O)C(CC)NS(=O)(=O)c1ccc(C)cc1 (centres unmarked),-5.8
5,O=C(CCN1C(=O)c2ccccc2C1=O)NC(c1ccccc1)C1CCCC1 (centres unmarked),-2.29
6,Cc1ccc(NC(=O)COc2cc(C)c(Cl)c(C)c2)c(Br)c1,1.35
7,CN(C)c1nc2c(N)ncnc2[nH]1,3.54
8,O=C1OC2(CCCCC2)OC(=O)C1=Cc1cccs1,-0.85
9,COc1ccc(N(CC(=O)Nc2cccc(SC)c2)S(C)(=O)=O)cc1OC,-5.48
10,Cc1cc(-c2ccc(C)c(S(=O)(=O)NCCC3=CCCCC3)c2)on1,-4.9
11,CC1=[N+]([O-])C(C)(C)C(c2cccs2)=[N+]1[O-],-5.28
12,Nc1c(C(=O)Nc2ccccn2)sc2nc(-c3cccs3)cc(C(F)(F)F)c12,-5.07
13,Cc1ccc(-c2nn(CCC(=O)NCc3cccnc3)c(=O)c3ccccc23)cc1,3.67
14,Cc1nc([N+](=O)[O-])cn1CC(=O)C12CC3CC(CC(C3)C1)C2,2.65
15,O=C(/C=C/c1cccnc1)c1cccc([N+](=O)[O-])c1,0.716
16,CCOC(=O)C1=C(C)NC(=O)NC1c1ccco1 (centres unmarked),0.962
17,N#CC1=C2SCN(Cc3ccccc3)CN2C(=O)CC1c1ccc(Cl)cc1 (centres unmarked),42.2
18,CC1CCN(C2=NC(=O)/C(=C\c3ccccc3Cl)S2)CC1,10.2
19,COc1cccc(S(=O)(=O)NCc2ccc(C(=O)Nc3ccc(Cl)cc3)cc2)c1,-1.36
20,CC(C)(C)OC(=O)N1CCC(c2c(C(=O)NC3CCCC3)cnn2-c2ccccc2)CC1,7.46
21,CC1(C)Oc2ccc3ccc(=O)oc3c2C(/C=N/CCc2c[nH]c3ccccc23)=C1O,-5
22,Cc1ccccc1C1C(=O)c2ccccc2C1=O,4.16
23,CCOc1ccc(CC(=O)Nc2c(C(C)=O)oc3ccccc23)cc1OCC,2.15
24,COc1ccc(S(=O)(=O)N(CC(=O)Nc2cc(C)ccc2OC)c2ccccc2)cc1,0.324
25,CCC(=O)NS(=O)(=O)c1ccc(NC(=O)c2ccco2)cc1,0.35
26,CN(C)c1ccc(/C=C/CN(CCO)Cc2ccccc2)cc1,-1.41

row,SMILES,% Inhibition @ 10 uM [%]
1,COc1ccc(NC(=O)/C=C/c2ccc3c(c2)OCO3)cc1,-0.351
2,CO/C=C(\Oc1ccccc1C)C(=O)Nc1ccccc1Cl,-9.4
3,CC(C)CCNCC1OCc2ccccc2CO1,0.275
4,COc1ccc(NC(=O)CN(c2cccc(C(F)(F)F)c2)S(C)(=O)=O)c(OC)c1,-10.8
5,N#CCc1ccc(NC(=O)COc2cc(Cl)c(Cl)cc2Cl)cc1,-1.52
6,Cc1ccc(CNCc2c(C(=O)O)c(C)n(Cc3ccccc3C)c2C)cc1,11.5
7,CCOC(=O)c1ccc(S(=O)(=O)N2CCN(c3ncc(C(F)(F)F)cc3Cl)CC2)cc1,1.32
8,CCN1CCCC1CNC(=O)C1=C(C)C(=O)OC12CCN(C(C)=O)CC2 (centres unmarked),3.62
9,CC(C)(C)n1ncc2c(=O)n(Cc3ccc(F)cc3)cnc21,-5.37
10,CCOC(=O)c1c(N)sc(C(=O)N(CC)CC)c1C,3.76
11,N#CCNC(=O)CCCCCN1C(=O)c2ccccc2C1=O,4.61
12,CS(=O)(=O)N(Cc1ccccc1)c1ccccc1C(=O)NC1CC2CCC1C2 (centres unmarked),5.12
13,CCc1cc2c(Nc3ccc(Cl)cc3)ncnc2s1,2.65
14,CCOc1cc(C2C3=C(CC(C)(C)CC3=O)OC3=C2C(=O)CC(C)(C)C3)cc(Cl)c1O,-6.48
15,OCc1ccnc(Cl)c1,-1.08
16,COc1ccc(OC)c(C(=O)c2ccc(C(=O)Nc3ccccc3C#N)cc2)c1,0.189
17,Cc1ccccc1N(CC(=O)Nc1ccc(Cl)cc1)S(C)(=O)=O,0.00477
18,Cc1cc(C)c(S(=O)(=O)N2CCCc3ccccc32)c(C)c1,1.83
19,COc1ccc2oc(=O)c(C(=O)N3CCN(C/C=C/c4ccccc4)CC3)cc2c1,-2.87
20,N#CCNC(=O)C(Cc1ccccc1)NC(=O)OCc1ccccc1 (centres unmarked),13.5
21,CCOc1ccc(C(=O)c2ccc(Cl)cc2)cc1,-0.703
22,O=C(O)c1cc(S(=O)(=O)N2CCCCC2)ccc1Br,-4.31
23,CC1CN(CCC(C)c2ccccc2)CC(C)O1 (centres unmarked),-2.34
24,c1ccc(-c2nnc3sc(C4COc5ccccc5O4)nn23)cc1 (centres unmarked),1.74
25,CCOc1ccccc1CNC(=O)C(C)n1ncn2cccc2c1=O (centres unmarked),-2.13
26,O=C(Nc1ccc(S(=O)(=O)N2CCCC2)cc1)c1ccc(Br)o1,-2.68

row,SMILES,% Inhibition @ 10 uM [%]
1,CC(C)CN(CCNC(=O)c1cc(-c2ccncc2)nc2ccccc12)CC(C)C,-1.79
2,N#CC1=C(N)OC2=C(CN(Cc3ccccc3)C/C2=C\c2cccs2)C1c1cccs1 (centres unmarked),0.76
3,CCCOc1nc2ccccc2nc1NS(=O)(=O)c1ccccc1,-2.18
4,CCn1c(C(=O)N2CCC(C(=O)NCCN(CC(C)C)CC(C)C)CC2)cc2sccc21,-5.19
5,O=C(Nc1ccccc1)Nc1ccc(S(=O)(=O)Nc2ccc(F)cc2)cc1,-2.03
6,OCCN1CCN(C2CCC(c3ccccc3)CC2)CC1 (centres unmarked),4.75
7,COc1ccc(C(=O)C2=C(O)C(=O)N(CCCN(C)C)C2c2ccc(Br)cc2)c(C)c1 (centres unmarked),1.86
8,CCc1ccc(OCC(=O)c2c(O)oc3ccccc3c2=O)cc1,0.0539
9,Nc1ccc(NC(=O)c2ccccc2)cc1,-5.65
10,O=C(Nc1ccc2[nH]c3c(c2c1)CCCC3)c1ccco1,1.03
11,Cc1ccc(Oc2nc3ccccn3c(=O)c2/C=C(\C#N)C(=O)NCCCOC(C)C)cc1,2.16
12,O=C(CNCCc1c[nH]c2ccccc12)Nc1c2c(nc3ccccc13)CCC2,-3.66
13,O=C(NCCN1CCOCC1)c1ccc(CSCc2cccc(Cl)c2)o1,5.47
14,Cc1ccc(C(C(=O)NC2CCCC2)N2CCN(C(=O)c3ccco3)CC2)cc1 (centres unmarked),-0.363
15,CC(NC(=O)c1cccc2c1C(=O)N(C1CCCCC1)C2)c1ccc2c(c1)OCCO2 (centres unmarked),7.59
16,O=C(Nc1ccc(CN2CCOCC2)cc1)c1ccc(Br)cc1,3.48
17,CCn1cc2c(c1-c1ccc(OC)cc1)c(=O)n(C)c(=O)n2C,-3.96
18,O=C(Nc1ccc(Oc2ccccc2)cc1)NC1CCCCC1,2.48
19,CCc1nnc(SCC(=O)O)n1N,3.79
20,CCN(CC)C(=O)C(c1ccccc1)c1ccccc1,-0.261
21,CCCN1C(=O)c2ccccc2NC1c1ccc2c(c1)OCO2 (centres unmarked),-6.7
22,CC(C)C[C@H](NC(=O)N1CCCCC1)C(=O)NCC#N,1.35
23,Fc1cccc(CN2CCN(c3cccc(C(F)(F)F)c3)CC2)c1,-1.86
24,NS(=O)(=O)c1ccc(NC(=O)c2cc(-c3ccc(Cl)s3)nc3ccccc23)cc1,-2.8
25,COc1ccc2cc3c(N)nn(C(=O)c4ccncc4)c3nc2c1,-3.68
26,CC1CCN(S(=O)(=O)N2CCCC(C(=O)N3CCN(C(=O)c4ccco4)CC3)C2)CC1 (centres unmarked),2.01

row,SMILES,% Inhibition @ 10 uM [%]
1,O=C(c1cc(C2CC2)[nH]n1)N(CCc1ccccc1)Cc1ccccc1,2.79
2,CCOC(=O)c1c(NC(=O)c2ccc(C(C)(C)C)cc2)sc(C(C)=O)c1C,6.51
3,COc1ccccc1C(=O)Nc1nn2c(-c3ccccc3C)nnc2s1,3.3
4,CCCN1CCN(C(=O)CN2Cc3ccccc3C2=O)CC1,2.11
5,CC(Cc1ccccc1F)N1CCN(Cc2ccccc2)CC1 (centres unmarked),10.4
6,COc1ccc(Cl)cc1NC(=O)C1C2C=CC(C2)C1C(=O)O (centres unmarked),-5.35
7,CC(=O)N1[C@@H](C2C(=O)NN=C2C)C[C@H](C)N1c1ccccc1 (some centres unmarked),-7.5
8,O=c1cc(O)n(-c2ccccc2)c(=S)[nH]1,-3.04
9,COc1cc2c(cc1OC)C(c1cccc(Br)c1)NC(=O)C2 (centres unmarked),-5.48
10,Cc1ccc(-c2noc(CSc3nnc(C)n3-c3cccc(C)c3)n2)cc1,-5.91
11,Cc1ccccc1OCCCC(=O)Nc1nc2ccccc2s1,-3.41
12,C=CCOc1ccccc1/C=c1\sc2nc(-c3cccs3)nn2c1=O,-1.52
13,C=CCN1C(=O)C(CC(=O)Nc2ccccc2F)S/C1=N\c1ccccc1C (centres unmarked),-5.7
14,CC(C)(C)c1ccc(S(=O)(=O)CCc2ccccn2)cc1,0.035
15,O=C(O)c1ccccc1C(=O)NCC1COc2ccccc2O1 (centres unmarked),-2.48
16,O=C(C1CCC1)N1CCN(c2ccc(OCc3ccccc3)cc2)CC1,-0.536
17,O=C(CCCOc1ccc(Cl)cc1Cl)Nc1ccc(O)cc1C(=O)O,-9.2
18,CCCSc1oc(-c2cccs2)nc1S(=O)(=O)c1ccccc1,0.0339
19,CCOC(=O)C1=CN(Cc2ccc(OC)cc2)C=C(C(=O)OCC)C1c1cccc(OC)c1OC,3.45
20,CCOC(=O)c1c(C)[nH]c(C)c1S(=O)(=O)NCC(=O)N1CCN(C(=O)c2ccco2)CC1,1.41
21,Cc1ccccc1NC(=O)c1cc(C(=O)Nc2ccccc2C)n(C)n1,1.96
22,N#CC1=C2c3ccccc3CC3(CCCC3)N2C(=O)C1=O,-0.736
23,O=C(CCNS(=O)(=O)c1cccc2nonc12)NCCc1ccc(Cl)cc1,6.57
